# Measurements as given in the supplement of paper PMC4604168 (melanoma cell lines).
# Some of the results follow. Single values are uncertain, as repeats are few or missing.
# System: MeWo
# Test: cell count relative to DMSO control; melanoma cells; higher = more viable cells
# Details: library dose: standard library concentration; 72 h; first compound 2 µM
# 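Also: cells treated in 1,536-well plates, then fixed and DAPI-stained, with nuclei counted from automated high-throughput microscope images.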
row,SMILES,cell count
1,C[C@@H](N)c1ccc(C(=O)Nc2ccnc3[nH]ccc23)cc1 + CO[C@@H]1[C@H](N(C)C(=O)c2ccccc2)C[C@H]2O[C@]1(C)n1c3ccccc3c3c4c(c5c6ccccc6n2c5c31)C(=O)NC4 [Midostaurin] (partner dose 0.4 µM),61.6%
2,Cn1sc(=O)n(Cc2ccccc2)c1=O + Nc1cccc2c1CN(C1CCC(=O)NC1=O)C2=O [lenalidomide] (partner dose 5 µM),102%
3,Cn1sc(=O)n(Cc2ccccc2)c1=O + COc1cc2c(Oc3ccc4[nH]c(C)cc4c3F)ncnc2cc1OCCCN1CCCC1 [cediranib] (partner dose 2 µM),80.8%
4,C[C@@H](N)c1ccc(C(=O)Nc2ccnc3[nH]ccc23)cc1 + Cn1sc(=O)n(Cc2ccccc2)c1=O [TDZD-8] (partner dose 2 µM),64.6%
5,C[C@@H](N)c1ccc(C(=O)Nc2ccnc3[nH]ccc23)cc1 + CC(C)C[C@H](NC(=O)[C@H](Cc1ccccc1)NC(=O)c1cnccn1)B(O)O [Bortezomib] (partner dose 0.005 µM),8.64%
6,CCCCCCCCCCCCCCCCCCOP(=O)([O-])OC1CC[N+](C)(C)CC1 [Perifosine] + C#Cc1cccc(Nc2ncnc3cc(OCCOC)c(OCCOC)cc23)c1 [erlotinib] (partner dose 4 µM),58.2%
7,Cn1sc(=O)n(Cc2ccccc2)c1=O + CNC(=O)c1cc(Oc2ccc(NC(=O)Nc3ccc(Cl)c(C(F)(F)F)c3)cc2)ccn1 [sorafenib] (partner dose 2 µM),82.6%
8,CCCCCCCCCCCCCCCCCCOP(=O)([O-])OC1CC[N+](C)(C)CC1 [Perifosine] + C[C@]1(c2nc3c(C(N)=O)cccc3[nH]2)CCCN1 [Veliparib] (partner dose 7 µM),108%
9,Cn1sc(=O)n(Cc2ccccc2)c1=O + Cc1cc(Nc2cc(N3CCN(C)CC3)nc(/C=C/c3ccccc3)n2)n[nH]1 [ENMD2076] (partner dose 0.2 µM),95.7%
10,CCCCCCCCCCCCCCCCCCOP(=O)([O-])OC1CC[N+](C)(C)CC1 [Perifosine] + COc1ccc(C2=N[C@@H](c3ccc(Cl)cc3)[C@@H](c3ccc(Cl)cc3)N2C(=O)N2CCNC(=O)C2)c(OC(C)C)c1 [Nutlin-3] (partner dose 0.5 µM),109%
11,Cn1sc(=O)n(Cc2ccccc2)c1=O + Cn1c(=O)n(-c2ccc(C(C)(C)C#N)cc2)c2c3cc(-c4cnc5ccccc5c4)ccc3ncc21 [NVP-BEZ235] (partner dose 0.02 µM),74.4%
12,C[C@@H](N)c1ccc(C(=O)Nc2ccnc3[nH]ccc23)cc1 + Nc1nc(F)nc2c1ncn2[C@@H]1O[C@H](CO)[C@@H](O)[C@@H]1O [fludarabine] (partner dose 1 µM),76.8%
13,C[C@@H](N)c1ccc(C(=O)Nc2ccnc3[nH]ccc23)cc1 + O=C(Nc1cccc(Cl)c1)Nc1ncc(CCNc2ncnc3ccsc23)s1 [SNS314] (partner dose 0.004 µM),41.2%
14,Cn1sc(=O)n(Cc2ccccc2)c1=O + O=C(O)c1ccc2c(c1)nc(Nc1cccc(Cl)c1)c1ccncc12 [CX4945] (partner dose 2 µM),81.9%
15,Cn1sc(=O)n(Cc2ccccc2)c1=O + COc1ccc(Cl)c(Nc2nc3ccccc3nc2NS(=O)(=O)c2cccc(NC(=O)C(C)(C)N)c2)c1 [XL147] (partner dose 4 µM),104%
16,CCCCCCCCCCCCCCCCCCOP(=O)([O-])OC1CC[N+](C)(C)CC1 [Perifosine] + Cn1nnc2c(C(N)=O)ncn2c1=O [temozolomide] (partner dose 10 µM),103%
17,CCCCCCCCCCCCCCCCCCOP(=O)([O-])OC1CC[N+](C)(C)CC1 [Perifosine] + Clc1ccc(Nc2nnc(Cc3ccncc3)c3ccccc23)cc1 [vatalanib] (partner dose 10 µM),112%
18,C[C@@H](N)c1ccc(C(=O)Nc2ccnc3[nH]ccc23)cc1 + COc1cc(Nc2ncc(F)c(Nc3ccc4c(n3)NC(=O)C(C)(C)O4)n2)cc(OC)c1OC [Tamatinib] (partner dose 2 µM),38.3%
19,C[C@@H](N)c1ccc(C(=O)Nc2ccnc3[nH]ccc23)cc1 + COc1cc2c(Oc3ccc4[nH]c(C)cc4c3F)ncnc2cc1OCCCN1CCCC1 [cediranib] (partner dose 2 µM),75%
20,C[C@@H](N)c1ccc(C(=O)Nc2ccnc3[nH]ccc23)cc1 + CCCCCCCCc1ccc(CCC(N)(CO)CO)cc1 [fingolimod] (partner dose 10 µM),8.12%

row,SMILES,cell count
1,Cn1sc(=O)n(Cc2ccccc2)c1=O + C[C@]1(O)C[C@@H](c2nc(-c3ccc4ccc(-c5ccccc5)nc4c3)c3c(N)nccn32)C1 [OSI906] (partner dose 2 µM),83.8%
2,Cn1sc(=O)n(Cc2ccccc2)c1=O + NC(=O)c1ccc(N(C(N)=O)c2c(F)cccc2F)nc1-c1ccc(F)cc1F [VX702] (partner dose 2 µM),92.9%
3,C[C@@H](N)c1ccc(C(=O)Nc2ccnc3[nH]ccc23)cc1 + Cn1cnc2c(F)c(Nc3ccc(Br)cc3Cl)c(C(=O)NOCCO)cc21 [selumetinib] (partner dose 0.075 µM),64%
4,CCCCCCCCCCCCCCCCCCOP(=O)([O-])OC1CC[N+](C)(C)CC1 [Perifosine] + CC(C)C[C@H](NC(=O)[C@H](Cc1ccccc1)NC(=O)c1cnccn1)B(O)O [Bortezomib] (partner dose 0.005 µM),14.6%
5,C[C@@H](N)c1ccc(C(=O)Nc2ccnc3[nH]ccc23)cc1 + CNC(=O)c1cc(Oc2ccc(NC(=O)Nc3ccc(Cl)c(C(F)(F)F)c3)cc2)ccn1 [sorafenib] (partner dose 2 µM),56.1%
6,CCCCCCCCCCCCCCCCCCOP(=O)([O-])OC1CC[N+](C)(C)CC1 [Perifosine] + C[C@]1(O)C[C@@H](c2nc(-c3ccc4ccc(-c5ccccc5)nc4c3)c3c(N)nccn32)C1 [OSI906] (partner dose 2 µM),74.8%
7,CCCCCCCCCCCCCCCCCCOP(=O)([O-])OC1CC[N+](C)(C)CC1 [Perifosine] + NC1(c2ccc(-c3nc4ccn5c(=O)[nH]nc5c4cc3-c3ccccc3)cc2)CCC1 [MK2206] (partner dose 2 µM),87.6%
8,CCCCCCCCCCCCCCCCCCOP(=O)([O-])OC1CC[N+](C)(C)CC1 [Perifosine] + O=c1[nH]nc(Sc2ncc([N+](=O)[O-])s2)n1-c1ccc2c(c1)OCCO2 [BI78D3] (partner dose 1 µM),108%
9,C[C@@H](N)c1ccc(C(=O)Nc2ccnc3[nH]ccc23)cc1 + NC1(c2ccc(-c3nc4ccn5c(=O)[nH]nc5c4cc3-c3ccccc3)cc2)CCC1 [MK2206] (partner dose 2 µM),63.6%
10,CCCCCCCCCCCCCCCCCCOP(=O)([O-])OC1CC[N+](C)(C)CC1 [Perifosine] + Cc1cn(-c2cc(NC(=O)c3ccc(C)c(Nc4nccc(-c5cccnc5)n4)c3)cc(C(F)(F)F)c2)cn1 [nilotinib] (partner dose 1 µM),106%
11,Cn1sc(=O)n(Cc2ccccc2)c1=O + CN(c1ncccc1CNc1nc(Nc2ccc3c(c2)CC(=O)N3)ncc1C(F)(F)F)S(C)(=O)=O [PF562271] (partner dose 0.4 µM),102%
12,C[C@@H](N)c1ccc(C(=O)Nc2ccnc3[nH]ccc23)cc1 + C=C(c1ccc(C(=O)O)cc1)c1cc2c(cc1C)C(C)(C)CCC2(C)C [Bexarotene] (partner dose 10 µM),53.9%
13,CCCCCCCCCCCCCCCCCCOP(=O)([O-])OC1CC[N+](C)(C)CC1 [Perifosine] + Cc1cc(Nc2cc(N3CCN(C)CC3)nc(/C=C/c3ccccc3)n2)n[nH]1 [ENMD2076] (partner dose 0.2 µM),71.3%
14,C[C@@H](N)c1ccc(C(=O)Nc2ccnc3[nH]ccc23)cc1 + CN(NC(=O)CC(=O)NN(C)C(=S)c1ccccc1)C(=S)c1ccccc1 [STA4783] (partner dose 0.03 µM),12.5%
15,Cn1sc(=O)n(Cc2ccccc2)c1=O + COc1cc(Nc2ncc(F)c(Nc3ccc4c(n3)NC(=O)C(C)(C)O4)n2)cc(OC)c1OC [Tamatinib] (partner dose 2 µM),64.7%
16,CCCCCCCCCCCCCCCCCCOP(=O)([O-])OC1CC[N+](C)(C)CC1 [Perifosine] + OCc1c[nH]c2ccccc12 [Indole-3-carbinol] (partner dose 4 µM),94.3%
17,C[C@@H](N)c1ccc(C(=O)Nc2ccnc3[nH]ccc23)cc1 + CS(=O)(=O)CCNCc1ccc(-c2ccc3ncnc(Nc4ccc(OCc5cccc(F)c5)c(Cl)c4)c3c2)o1 [lapatinib] (partner dose 4 µM),69.3%
18,Cn1sc(=O)n(Cc2ccccc2)c1=O + O=C(O)c1ccc(-c2c[nH]c3ncc(-c4ccccc4)cc23)cc1C1CCCC1 [GSK650394] (partner dose 0.8 µM),86.4%
19,Cn1sc(=O)n(Cc2ccccc2)c1=O + Cn1nnc2c(C(N)=O)ncn2c1=O [temozolomide] (partner dose 10 µM),111%
